Reference: patent US11198713B2, “Agents modulating beta-catenin functions and methods thereof” (FOG PHARMACEUTICALS, INC., priority 2017, dated 2021)
At least one peptide structure holds a part that was inferred or is arguable (an end, a ring closure or a residue). At least one structure is not confirmed: it was looked up by name or label, or the drawing left a doubt. Numbered stars: 1 amine (or outer) side, 2 acyl side, 3 side chain; on linkers, the order of the positions; unused ones are H or OH. Bridge positions count the residues as written; N and C are the ends. Square brackets hold non-standard residues; d marks the D form. Peptide text beside a SMILES is read from it. dαMeOrn(Me) = CN(CCC[C@@](C)(N[*:1])C(=O)[*:2])[*:3]; dαMeDab(Me) = CN(CC[C@@](C)(N[*:1])C(=O)[*:2])[*:3]; dαMeDap(Me) = CN(C[C@@](C)(N[*:1])C(=O)[*:2])[*:3]; αMeDab(Me) = CN(CC[C@](C)(N[*:1])C(=O)[*:2])[*:3]; X12 = CN(CC=[*:3])CCC[C@@](C)(N[*:1])C(=O)[*:2]; X8 = CN(CC=[*:3])CCC[C@](C)(N[*:1])C(=O)[*:2]; X13 = C[C@@](CCCCC=[*:3])(N[*:1])C(=O)[*:2]; X7 = C[C@](CCCCC=[*:3])(N[*:1])C(=O)[*:2]; X9 = C[C@](CCC=[*:3])(N[*:1])C(=O)[*:2]; X2 = O=C(OCC=CCOC(=O)[*:2])[*:1]; R5 = C=CCCC[C@@](C)(N)C(=O)O

Assays:
[1] = target: T1, full-length beta-catenin (Axin site) (Homo sapiens, UniProt P35222); assay: Competition fluorescence polarization assay (Axin site probe); type: binding
T1 construct: 15 nM full-length beta-catenin, 20 nM FITC labeled peptide in buffer
T1 sequence (P35222 1-781): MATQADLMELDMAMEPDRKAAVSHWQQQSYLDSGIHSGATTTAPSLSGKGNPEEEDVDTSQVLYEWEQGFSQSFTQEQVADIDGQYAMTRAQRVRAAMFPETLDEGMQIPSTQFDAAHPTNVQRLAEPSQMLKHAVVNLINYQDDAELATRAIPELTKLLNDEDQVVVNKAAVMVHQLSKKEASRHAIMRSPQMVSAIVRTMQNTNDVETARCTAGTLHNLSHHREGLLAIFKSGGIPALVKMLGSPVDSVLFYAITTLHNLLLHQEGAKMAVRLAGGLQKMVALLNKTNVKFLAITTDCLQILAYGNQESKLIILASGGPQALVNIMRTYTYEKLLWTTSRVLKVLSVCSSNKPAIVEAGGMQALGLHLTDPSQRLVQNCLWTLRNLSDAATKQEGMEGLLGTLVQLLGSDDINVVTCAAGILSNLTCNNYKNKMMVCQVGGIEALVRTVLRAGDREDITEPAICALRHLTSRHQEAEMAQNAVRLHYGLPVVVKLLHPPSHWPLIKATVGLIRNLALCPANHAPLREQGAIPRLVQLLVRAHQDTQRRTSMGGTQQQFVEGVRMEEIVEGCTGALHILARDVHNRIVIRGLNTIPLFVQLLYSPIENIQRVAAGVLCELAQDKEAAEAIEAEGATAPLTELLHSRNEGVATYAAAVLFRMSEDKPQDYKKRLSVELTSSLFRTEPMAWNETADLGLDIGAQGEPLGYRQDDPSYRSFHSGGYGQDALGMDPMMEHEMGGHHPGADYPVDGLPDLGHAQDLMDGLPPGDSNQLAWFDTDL
Procedure: FIG. 1. […] Peptide solutions were prepared in buffer (50 mM Tris pH 8.0, 250 mM NaCl, 2% glycerol, 0.5 mM EDTA, 0.02% w/v sodium azide) using a 3-fold serial dilution from 5 μM. Probe solution (15 nM full-length 13-Catenin, 20 nM FITC labeled peptide (FITC-PEG1-PQ-S5-ILD-S5-HVRRVWR (SEQ ID NO: 1) (hydrocarbon staple formed by two S5 via olefin metathesis)) in buffer) was prepared and incubated for 5 minutes, then 40 μL per well plated in a black polystyrene 384-well plate (Corning). Equal volume of the titrated peptide was added to the plate and incubated protected from light for 15 minutes prior to read. Reads were performed on a Spectramax M5 (Molecular Devices) in duplicate.
FIG. 7. […] BCL9 Competition FP assay: Peptide solutions were prepared in buffer (50 mM Tris pH 8.0, 250 mM NaCl, 2% glycerol, 0.5 mM EDTA, 0.02% w/v sodium azide) using a 3-fold serial dilution from 10 μM. Probe solution (250 nM full-length beta-catenin, 20 nM 5FAM labeled peptide in buffer) was prepared and 40 μL per well plated in a black polystyrene 384-well plate (Corning). Equal volume of the titrated peptide was added to the plate and incubated protected from light for 15 minutes prior to read. Reads were performed on a Spectramax M5 (Molecular Devices) in duplicate. Probe: Ac-[…]nLeu-Leu-2NapA-bala-bala-Lys5FAM-NH2 (SEQ ID NO: 2) (from Biochemistry, 2009, 48 (40), pp 9534-9541). Axin Competition FP assay: Peptide solutions were prepared in buffer (50 mM Tris pH 8.0, 250 mM NaCl, 2% glycerol, 0.5 mM EDTA, 0.02% w/v sodium azide) using a 3-fold serial dilution from 5 μM. Probe solution (15 nM full-length beta-catenin, 20 nM FITC labeled peptide in buffer) was prepared and incubated for 5 minutes, then 40 μL per well plated in a black polystyrene 384-well plate (Corning). Equal volume of the titrated peptide was added to the plate and incubated protected from light for 15 minutes prior to read. Reads were performed on a Spectramax M5 (Molecular Devices) in duplicate. Probe: FITC-StAx-33 from Grossmann et al. PNAS 109 17942-17947.

[2] = system: TCF/LEF Luciferase reporter HEK293 cell lines; assay: TCF/LEF reporter assay; type: cell-based; settings: 10 μM; for TCF/LEF Reporter Inhibition at 10 μM: Table 2
[3] = Table 3 Part B, amino-stapled product
[4] = Table 3 Part A, carbamate-stapled peptides

| Structure (SMILES) | Target Binding [1, 3] | Target Binding [1, 4] | Beta-Catenin Luciferase Reporter % Inhibition at 10 μM [2, 3] [%] | Beta-Catenin Luciferase Reporter % Inhibition at 10 μM ([2]; Table 3 Part A) | TCF/LEF Reporter Inhibition at 10 μM [2] [%] |
| --- | --- | --- | --- | --- | --- |
| CC[C@H](C)[C@@H]1NC(=O)[C@H](Cc2c[nH]cn2)NC(=O)[C@H](C)NC(=O)[C@H](CC(=O)O)NC(=O)[C@H](CC(C)C)NC(=O)[C@H]([C@@H](C)CC)NC(=O)[C@](C)(NC(=O)[C@H](C)NC(C)=O)CCCN(C)CC=CCCCC[C@@](C)(C(=O)N[C@@H](CCCNC(=N)N)C(=O)N[C@H](C(=O)N[C@@H](Cc2c[nH]c3ccccc23)C(N)=O)C(C)C)NC1=O [FP0507a, Ac-A-MI-I-L-D-A-H-I-S6-R-V-W-NH2] (Ac-A[X12]ILDAHI[X13]RVW-NH2; staple 2-9) | Yes |  | 32 |  |  |
| CC[C@H](C)[C@@H]1NC(=O)[C@H](Cc2c[nH]cn2)NC(=O)[C@H](C)NC(=O)[C@H](CC(=O)O)NC(=O)[C@H](CC(C)C)NC(=O)[C@H]([C@@H](C)CC)NC(=O)[C@](C)(NC(=O)[C@H](C)NC(C)=O)CCCN(C)C(=O)OCC=CCCCC[C@@](C)(C(=O)N[C@@H](CCCNC(=N)N)C(=O)N[C@H](C(=O)N[C@@H](Cc2c[nH]c3ccccc23)C(N)=O)C(C)C)NC1=O [FP0507c, Ac-A-MI-I-L-D-A-H-I-S6-R-V-W-NH2] |  | Yes |  | 32% (Only one isomer isolated) |  |
| CC[C@H](C)[C@@H]1NC(=O)[C@H](Cc2c[nH]cn2)NC(=O)[C@H](C)NC(=O)[C@H](CC(=O)O)NC(=O)[C@H](CC(C)C)NC(=O)[C@H]([C@@H](C)CC)NC(=O)[C@](C)(NC(=O)[C@H](C)NC(C)=O)CCC=CCN(C)CCC[C@@](C)(C(=O)N[C@@H](CCCNC(=N)N)C(=O)N[C@H](C(=O)N[C@@H](Cc2c[nH]c3ccccc23)C(N)=O)C(C)C)NC1=O [FP0509a, Ac-A-R4-I-L-D-A-H-I-MH-R-V-W-NH2] (Ac-A[X9]ILDAHI[X8]RVW-NH2; staple 2-9) | Yes |  | 0 |  |  |
| CC[C@H](C)[C@@H]1NC(=O)[C@H](Cc2c[nH]cn2)NC(=O)[C@H](C)NC(=O)[C@H](CC(=O)O)NC(=O)[C@H](CC(C)C)NC(=O)[C@H]([C@@H](C)CC)NC(=O)[C@](C)(NC(=O)[C@H](C)NC(C)=O)CCC=CCOC(=O)N(C)CCC[C@@](C)(C(=O)N[C@@H](CCCNC(=N)N)C(=O)N[C@H](C(=O)N[C@@H](Cc2c[nH]c3ccccc23)C(N)=O)C(C)C)NC1=O [FP0509c, Ac-A-R4-I-L-D-A-H-I-MH-R-V-W-NH2] |  | Yes |  | 39% |  |
| CC[C@H](C)[C@@H]1NC(=O)[C@H](Cc2c[nH]cn2)NC(=O)[C@H](C)NC(=O)[C@H](CC(=O)O)NC(=O)[C@H](CC(C)C)NC(=O)[C@H]([C@@H](C)CC)NC(=O)[C@](C)(NC(=O)[C@H](C)NC(C)=O)CCCC=CCN(C)CCC[C@@](C)(C(=O)N[C@@H](CCCNC(=N)N)C(=O)N[C@H](C(=O)N[C@@H](Cc2c[nH]c3ccccc23)C(N)=O)C(C)C)NC1=O [FP0510a, Ac-A-R5-I-L-D-A-H-I-MH-R-V-W-NH2] (Ac-A[R5]ILDAHI[X8]RVW-NH2; staple 2-9) | Yes |  | 49 |  |  |
| CC[C@H](C)[C@@H]1NC(=O)[C@H](Cc2c[nH]cn2)NC(=O)[C@H](C)NC(=O)[C@H](CC(=O)O)NC(=O)[C@H](CC(C)C)NC(=O)[C@H]([C@@H](C)CC)NC(=O)[C@](C)(NC(=O)[C@H](C)NC(C)=O)CCCCC=CCN(C)CCC[C@@](C)(C(=O)N[C@@H](CCCNC(=N)N)C(=O)N[C@H](C(=O)N[C@@H](Cc2c[nH]c3ccccc23)C(N)=O)C(C)C)NC1=O [FP0511a, Ac-A-R6-I-L-D-A-H-I-MH-R-V-W-NH2] (Ac-A[X7]ILDAHI[X8]RVW-NH2; staple 2-9) | Yes |  | 0 |  |  |
| CC[C@H](C)[C@@H]1NC(=O)[C@H](Cc2c[nH]cn2)NC(=O)[C@H](C)NC(=O)[C@H](CC(=O)O)NC(=O)[C@H](CC(C)C)NC(=O)[C@H]([C@@H](C)CC)NC(=O)[C@](C)(NC(=O)[C@H](C)NC(C)=O)CCCCCC=CCOC(=O)N2CC(C(=O)N[C@@H](CCCNC(=N)N)C(=O)N[C@H](C(=O)N[C@@H](Cc3c[nH]c4ccccc34)C(N)=O)C(C)C)(C2)NC1=O [FP0516c, Ac-A-R7-I-L-D-A-H-I-MA-R-V-W-NH2] |  | 151 |  | 27% |  |

Second part, led by results:

| Target Binding [1, 3] | Target Binding [1, 4] | Structure (SMILES) | Beta-Catenin Luciferase Reporter % Inhibition at 10 μM [2, 3] [%] | Beta-Catenin Luciferase Reporter % Inhibition at 10 μM ([2]; Table 3 Part A) | TCF/LEF Reporter Inhibition at 10 μM [2] [%] |
| --- | --- | --- | --- | --- | --- |
|  | Yes | CC[C@H](C)[C@@H]1NC(=O)[C@H](Cc2c[nH]cn2)NC(=O)[C@H](C)NC(=O)[C@H](CC(=O)O)NC(=O)[C@H](CC(C)C)NC(=O)[C@H]([C@@H](C)CC)NC(=O)[C@](C)(NC(=O)[C@H](C)NC(C)=O)CCCN(C)C(=O)OCC=CCOC(=O)N(C)CC[C@@](C)(C(=O)N[C@@H](CCCNC(=N)N)C(=O)N[C@H](C(=O)N[C@@H](Cc2c[nH]c3ccccc23)C(N)=O)C(C)C)NC1=O [FP0587c, Ac-A-MI-I-L-D-A-H-I-MF-R-V-W-NH2] (Ac-A[dαMeOrn(Me)]ILDAHI[αMeDab(Me)]RVW-NH2; linker 2-9 via X2) |  | 43% | 33 |
|  | Yes | CC[C@H](C)[C@@H]1NC(=O)[C@H](Cc2c[nH]cn2)NC(=O)[C@H](C)NC(=O)[C@H](CC(=O)O)NC(=O)[C@H](CC(C)C)NC(=O)[C@H]([C@@H](C)CC)NC(=O)[C@](C)(NC(=O)[C@H](C)NC(C)=O)CCCN(C)C(=O)OCC=CCOC(=O)N(C)CC[C@](C)(C(=O)N[C@@H](CCCNC(=N)N)C(=O)N[C@H](C(=O)N[C@@H](Cc2c[nH]c3ccccc23)C(N)=O)C(C)C)NC1=O [FP0588c, Ac-A-MI-I-L-D-A-H-I-MG-R-V-W-NH2] (Ac-A[dαMeOrn(Me)]ILDAHI[dαMeDab(Me)]RVW-NH2; linker 2-9 via X2) |  | 61% | 61 |
|  | Yes | CC[C@H](C)[C@@H]1NC(=O)[C@H](Cc2c[nH]cn2)NC(=O)[C@H](C)NC(=O)[C@H](CC(=O)O)NC(=O)[C@H](CC(C)C)NC(=O)[C@H]([C@@H](C)CC)NC(=O)[C@](C)(NC(=O)[C@H](C)NC(C)=O)CCN(C)C(=O)OCC=CCOC(=O)N(C)CC[C@@](C)(C(=O)N[C@@H](CCCNC(=N)N)C(=O)N[C@H](C(=O)N[C@@H](Cc2c[nH]c3ccccc23)C(N)=O)C(C)C)NC1=O [FP0594c, Ac-A-MG-I-L-D-A-H-I-MF-R-V-W-NH2] (Ac-A[dαMeDab(Me)]ILDAHI[αMeDab(Me)]RVW-NH2; linker 2-9 via X2) |  | 23% | 23 |
|  | Yes | CC[C@H](C)[C@@H]1NC(=O)[C@H](Cc2c[nH]cn2)NC(=O)[C@H](C)NC(=O)[C@H](CC(=O)O)NC(=O)[C@H](CC(C)C)NC(=O)[C@H]([C@@H](C)CC)NC(=O)[C@](C)(NC(=O)[C@H](C)NC(C)=O)CCN(C)C(=O)OCC=CCOC(=O)N(C)C[C@](C)(C(=O)N[C@@H](CCCNC(=N)N)C(=O)N[C@H](C(=O)N[C@@H](Cc2c[nH]c3ccccc23)C(N)=O)C(C)C)NC1=O [FP0596c, Ac-A-MG-I-L-D-A-H-I-ME-R-V-W-NH2] (Ac-A[dαMeDab(Me)]ILDAHI[dαMeDap(Me)]RVW-NH2; linker 2-9 via X2) |  | 11% | 21 |
